In the supplement of paper PMC12217912:
Some of the results follow. The full chains were built here from the parent and the listed change. Values near 0.05 are background.

B1: TEV protease; numbered along this chain (parent)
chain: MGESLFKGPRDYNPISSSICHLTNESDGHTTSLYGIGFGPFIITNKHLFRRNNGTLVVQSLHGVFKVKDTTTLQQHLVDGRDMIIIRMPKDFPPFPQKLKFREPQREERICLVTTNFQTKSMSSMVSDTSCTFPSGDGIFWKHWIQTKDGQCGSPLVSTRDGFIVGIHSASNFTNTNNYFTSVPKNFMELLTNQEAQQWVSGWRLNADSVLWGGHKVFMVKPEEPFQPVKEATQL

Variants of: B1
Experiment: raw area under fraction-flipped curve 0-4 h after induction (AUC4h, not background-subtracted), DNA-recorder readout of cleavage of the substrate (dimensionless); higher = more cleavage of the substrate by the protease variant
Conditions: temperature: 34 °C; time window: 0-4 h after rhamnose induction
Description: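 In vivo DNA recorder in E. coli TOP10(DE3) ΔrhaA at 34 °C. Each TEVp single-site mutant (parent TEVp 0) is paired with a single-site variant of the 7-mer TEVs (canonical ENLYFQ|S). The substrate sits between flexible linkers in a Bxb1-sfGFP-TEVs-SsrA fusion, so cleavage stabilises Bxb1 and speeds flipping of a recombination array, read by NGS. The value is the raw area under the fraction-flipped curve over 0-4 h after rhamnose induction (AUC4h), with ≥20 reads per time point. It is not background-subtracted; inactive controls average about 0.047.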
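Note: Bxb1 expression induced with 0.2% (w/v) L-rhamnose at OD600 near 0.5, cultures sampled hourly, flipped fraction per protease–substrate barcode pair counted by paired-end Illumina sequencing.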

| Variant | area with substrate ENLYDQS | area with substrate ENLYIQS | area with substrate ENLYKQS | area with substrate ENLYMQS | area with substrate ENLYNQS | area with substrate ENLYEQS | area with substrate ENLYGQS | area with substrate ENLYHQS | area with substrate ENLYQQS | area with substrate ENLYTQS | area with substrate ENLYVQS | area with substrate ENLYWQS | area with substrate ENLYLQS | area with substrate ENLYRQS | area with substrate ENLYSQS | area with substrate ENLYYQS | area with substrate ENLYPQS |
| --- | --- | --- | --- | --- | --- | --- | --- | --- | --- | --- | --- | --- | --- | --- | --- | --- | --- |
| MGESLFKGPRDYNPISSSICHLTNESDGHTTSLYGIGFGPFIITNKHLFRRNNGTLVVQSLHGVFKVKDTTTLQQHLVDGRDMIIIRMPKDFPPFPQKLKFREPQREERICLVTTKFQTKSMSSMVSDTSCTFPSGDGIFWKHWIQTKDGQCGSPLVSTRDGFIVGIHSASNFTNTNNYFTSVPKNFMELLTNQEAQQWVSGWRLNADSVLWGGHKVFMVKPEEPFQPVKEATQL [N116K] | 0.0747 | 0.154 | 0.049 | 0.0867 | 0.0677 | – | – | – | – | – | – | – | – | – | – | – | – |
| MGESLFKGPRDYNPISSSICHLTNESDGHTTSLYGIGFGPFIITNKHLFRRNNGTLVVQSLHGVFKVKDTTTLQQHLVDGRDMIIIRMPKDFPPFPQKLKFREPQREIRICLVTTNFQTKSMSSMVSDTSCTFPSGDGIFWKHWIQTKDGQCGSPLVSTRDGFIVGIHSASNFTNTNNYFTSVPKNFMELLTNQEAQQWVSGWRLNADSVLWGGHKVFMVKPEEPFQPVKEATQL [E108I] | 0.0496 | 0.0621 | 0.0632 | – | 0.0566 | 0.0604 | 0.0563 | 0.0569 | 0.0429 | 0.0584 | 0.0536 | 0.0612 | – | – | – | – | – |
| MGESLFKGPRDYNPISSSICHLTNESDGHTTSLYGIGFGPFIITNKHLFRRNNGTLVVQSLHGVFKVKDTTTLQQHLVDGRDMIIIRMPKDFPPFPQKLKFREPQREERICLVTTNFQTKSMSSMVSDTSCTFPSGDGIFWKHWIQTKKGQCGSPLVSTRDGFIVGIHSASNFTNTNNYFTSVPKNFMELLTNQEAQQWVSGWRLNADSVLWGGHKVFMVKPEEPFQPVKEATQL [D149K] | 0.0308 | 0.0809 | – | 0.0808 | 0.0577 | 0.0566 | 0.0576 | 0.063 | 0.0445 | – | 0.0841 | – | 0.0649 | 0.0448 | 0.0742 | 0.055 | – |
| MGESLFKGPRDYNPISSSICHLTNESDGHTTSLYGIGFGPFIITNKHLFRRNNGTLVVQSLHGVFKVKDTTTLQQHLVDGRDMIIIRMPKDFPPFPQKLKFREPQREERICLVTTNFQTKSMSSMVSDTCCTFPSGDGIFWKHWIQTKDGQCGSPLVSTRDGFIVGIHSASNFTNTNNYFTSVPKNFMELLTNQEAQQWVSGWRLNADSVLWGGHKVFMVKPEEPFQPVKEATQL [S130C] | 0.048 | – | 0.0525 | – | – | – | – | 0.0846 | – | – | – | – | – | – | – | – | – |
| MGESLFKGPRDYNPISSSICHLTNESDGHTTSLYGIGFGPFIITNKHLFRRNNGTLVVQSLHGVFKVKDTTTLQQHLVDGRDMIIIRMPKDFPPFPQKLKFREPQREERICLVTTNFQTKSMSSMVSDTSCTFPSGDGIFWKHWIQTKDGQCGSPLVSTRDGFIVGIHSASNFTNTNNYFASVPKNFMELLTNQEAQQWVSGWRLNADSVLWGGHKVFMVKPEEPFQPVKEATQL [T181A] | 0.0534 | 0.0835 | – | 0.0834 | – | 0.063 | 0.0745 | 0.0583 | 0.0713 | – | – | – | – | – | 0.0762 | 0.0738 | – |
| MGESLFKGPRDYNPISSSICHLTNESDGHTTSLYGIGFGPFIITNKHLFRRNNGTLVVQSLHGVFKVKDTTTLQQHLVDGRDMIIKRMPKDFPPFPQKLKFREPQREERICLVTTNFQTKSMSSMVSDTSCTFPSGDGIFWKHWIQTKDGQCGSPLVSTRDGFIVGIHSASNFTNTNNYFTSVPKNFMELLTNQEAQQWVSGWRLNADSVLWGGHKVFMVKPEEPFQPVKEATQL [I86K] | 0.0362 | 0.0393 | – | 0.0409 | 0.0396 | 0.0264 | 0.0361 | 0.0391 | – | – | – | 0.0418 | – | 0.0274 | 0.0363 | – | – |
| MGESLFKGPRDYNPISSSICHLTNESDGHTTSLYGIGFGPFIITNKHLFRRNNGTLVVQSLHGVFKVKDTTTLQQHLVDGRDMIIIRMPKDFPPFPQKLKFREPQREERICLVTTNFQTKSMSSMVSDTSCTFPSGDGIFWKHWIQTKDGQCGSPLVSTRDGFISGIHSASNFTNTNNYFTSVPKNFMELLTNQEAQQWVSGWRLNADSVLWGGHKVFMVKPEEPFQPVKEATQL [V165S] | 0.0551 | 0.0212 | 0.0568 | 0.0514 | 0.0341 | 0.0662 | 0.0569 | 0.0489 | 0.0529 | 0.0749 | 0.0414 | – | – | 0.0536 | 0.0455 | 0.0527 | 0.048 |
| MGESLFKGPRDYNPISSSICHLTNESDGHTTSLYGIGFGPFIITNKHLFRRNNGTLVVQSLHGVFKVKDTTTLQQHLVDGRDMIIIRMPKDFPPFPQKLKFREPQREERICLVVTNFQTKSMSSMVSDTSCTFPSGDGIFWKHWIQTKDGQCGSPLVSTRDGFIVGIHSASNFTNTNNYFTSVPKNFMELLTNQEAQQWVSGWRLNADSVLWGGHKVFMVKPEEPFQPVKEATQL [T114V] | 0.0595 | – | – | – | 0.0922 | 0.056 | 0.0791 | 0.0583 | 0.0621 | – | 0.109 | 0.0816 | 0.0762 | 0.0733 | 0.0712 | – | 0.0787 |
| MGESLFKGPRDYNPISSSICHLTNESDGHTTSLYGIGFGPFIITNKHLFRRNNGTLVVQSLHGVFKVKDTTTLQQHLVDGRDMIIIRMPKDFPPFPQKLKFREPQREERICLVTTNGQTKSMSSMVSDTSCTFPSGDGIFWKHWIQTKDGQCGSPLVSTRDGFIVGIHSASNFTNTNNYFTSVPKNFMELLTNQEAQQWVSGWRLNADSVLWGGHKVFMVKPEEPFQPVKEATQL [F117G] | 0.0665 | 0.109 | 0.0623 | 0.0551 | 0.0633 | – | – | 0.0954 | 0.0668 | 0.0712 | 0.109 | 0.0667 | 0.0936 | – | – | 0.076 | 0.0825 |
| MGESLFKGPRDYNPISSSICHLTNESDGHTTSLGGIGFGPFIITNKHLFRRNNGTLVVQSLHGVFKVKDTTTLQQHLVDGRDMIIIRMPKDFPPFPQKLKFREPQREERICLVTTNFQTKSMSSMVSDTSCTFPSGDGIFWKHWIQTKDGQCGSPLVSTRDGFIVGIHSASNFTNTNNYFTSVPKNFMELLTNQEAQQWVSGWRLNADSVLWGGHKVFMVKPEEPFQPVKEATQL [Y34G] | 0.0677 | – | 0.0597 | – | – | 0.03 | – | 0.0428 | – | – | 0.0697 | 0.0677 | – | – | 0.0549 | 0.0583 | – |
